These are yes or no findings as the source states them, for the method shown. In cells and extracts the contact can be indirect. Some entries that bind do so weakly or less than the wild type. For some assays here: Sequences can lack the tags named with a protein. One block for each substance: values may come before it.
Key:
Assay in all cases: co-IP; GFP-coprecipitation: cell lysates in NP-40 lysis buffer (10 mM Tris/HCl pH 7.5, 150 mM NaCl, 5 mM EDTA, 0.5% NP-40) on GFP-trap A beads, 4 °C, 15-120 min, three washes; immunoblot
Nup88(303-741)-GFP = target: T1, Nup88(303-741)-GFP (UniProt Q99567)
T1 sequence: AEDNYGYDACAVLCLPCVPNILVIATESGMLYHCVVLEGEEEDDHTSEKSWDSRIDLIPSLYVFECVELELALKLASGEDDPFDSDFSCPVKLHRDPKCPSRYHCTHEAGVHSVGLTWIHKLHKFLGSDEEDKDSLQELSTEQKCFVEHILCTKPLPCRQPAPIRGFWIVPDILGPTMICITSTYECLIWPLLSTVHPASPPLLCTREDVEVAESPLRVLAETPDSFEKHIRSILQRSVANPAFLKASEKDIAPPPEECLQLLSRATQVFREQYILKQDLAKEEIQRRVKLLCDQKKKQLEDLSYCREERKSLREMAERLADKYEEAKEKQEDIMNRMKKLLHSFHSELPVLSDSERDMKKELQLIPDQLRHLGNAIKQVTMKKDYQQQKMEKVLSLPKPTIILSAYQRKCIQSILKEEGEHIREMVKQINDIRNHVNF

By UniProt entry, the sequences of proteins in these tests, tags left out. Where a name states a change or a piece, a line headed by the entry shows the natural chain unless it says otherwise.
UniProt P08670: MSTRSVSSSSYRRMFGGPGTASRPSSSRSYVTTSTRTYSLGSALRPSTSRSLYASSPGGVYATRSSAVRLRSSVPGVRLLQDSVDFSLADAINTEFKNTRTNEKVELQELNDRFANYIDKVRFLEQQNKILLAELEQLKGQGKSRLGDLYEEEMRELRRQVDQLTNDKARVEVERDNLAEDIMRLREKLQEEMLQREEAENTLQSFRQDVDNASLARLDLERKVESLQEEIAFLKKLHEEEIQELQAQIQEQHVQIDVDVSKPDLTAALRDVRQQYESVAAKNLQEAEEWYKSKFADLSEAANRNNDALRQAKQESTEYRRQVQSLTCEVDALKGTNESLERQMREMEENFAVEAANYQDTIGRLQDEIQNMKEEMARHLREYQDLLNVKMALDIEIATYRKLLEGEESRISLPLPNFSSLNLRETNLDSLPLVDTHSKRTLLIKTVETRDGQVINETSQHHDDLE
UniProt P49792: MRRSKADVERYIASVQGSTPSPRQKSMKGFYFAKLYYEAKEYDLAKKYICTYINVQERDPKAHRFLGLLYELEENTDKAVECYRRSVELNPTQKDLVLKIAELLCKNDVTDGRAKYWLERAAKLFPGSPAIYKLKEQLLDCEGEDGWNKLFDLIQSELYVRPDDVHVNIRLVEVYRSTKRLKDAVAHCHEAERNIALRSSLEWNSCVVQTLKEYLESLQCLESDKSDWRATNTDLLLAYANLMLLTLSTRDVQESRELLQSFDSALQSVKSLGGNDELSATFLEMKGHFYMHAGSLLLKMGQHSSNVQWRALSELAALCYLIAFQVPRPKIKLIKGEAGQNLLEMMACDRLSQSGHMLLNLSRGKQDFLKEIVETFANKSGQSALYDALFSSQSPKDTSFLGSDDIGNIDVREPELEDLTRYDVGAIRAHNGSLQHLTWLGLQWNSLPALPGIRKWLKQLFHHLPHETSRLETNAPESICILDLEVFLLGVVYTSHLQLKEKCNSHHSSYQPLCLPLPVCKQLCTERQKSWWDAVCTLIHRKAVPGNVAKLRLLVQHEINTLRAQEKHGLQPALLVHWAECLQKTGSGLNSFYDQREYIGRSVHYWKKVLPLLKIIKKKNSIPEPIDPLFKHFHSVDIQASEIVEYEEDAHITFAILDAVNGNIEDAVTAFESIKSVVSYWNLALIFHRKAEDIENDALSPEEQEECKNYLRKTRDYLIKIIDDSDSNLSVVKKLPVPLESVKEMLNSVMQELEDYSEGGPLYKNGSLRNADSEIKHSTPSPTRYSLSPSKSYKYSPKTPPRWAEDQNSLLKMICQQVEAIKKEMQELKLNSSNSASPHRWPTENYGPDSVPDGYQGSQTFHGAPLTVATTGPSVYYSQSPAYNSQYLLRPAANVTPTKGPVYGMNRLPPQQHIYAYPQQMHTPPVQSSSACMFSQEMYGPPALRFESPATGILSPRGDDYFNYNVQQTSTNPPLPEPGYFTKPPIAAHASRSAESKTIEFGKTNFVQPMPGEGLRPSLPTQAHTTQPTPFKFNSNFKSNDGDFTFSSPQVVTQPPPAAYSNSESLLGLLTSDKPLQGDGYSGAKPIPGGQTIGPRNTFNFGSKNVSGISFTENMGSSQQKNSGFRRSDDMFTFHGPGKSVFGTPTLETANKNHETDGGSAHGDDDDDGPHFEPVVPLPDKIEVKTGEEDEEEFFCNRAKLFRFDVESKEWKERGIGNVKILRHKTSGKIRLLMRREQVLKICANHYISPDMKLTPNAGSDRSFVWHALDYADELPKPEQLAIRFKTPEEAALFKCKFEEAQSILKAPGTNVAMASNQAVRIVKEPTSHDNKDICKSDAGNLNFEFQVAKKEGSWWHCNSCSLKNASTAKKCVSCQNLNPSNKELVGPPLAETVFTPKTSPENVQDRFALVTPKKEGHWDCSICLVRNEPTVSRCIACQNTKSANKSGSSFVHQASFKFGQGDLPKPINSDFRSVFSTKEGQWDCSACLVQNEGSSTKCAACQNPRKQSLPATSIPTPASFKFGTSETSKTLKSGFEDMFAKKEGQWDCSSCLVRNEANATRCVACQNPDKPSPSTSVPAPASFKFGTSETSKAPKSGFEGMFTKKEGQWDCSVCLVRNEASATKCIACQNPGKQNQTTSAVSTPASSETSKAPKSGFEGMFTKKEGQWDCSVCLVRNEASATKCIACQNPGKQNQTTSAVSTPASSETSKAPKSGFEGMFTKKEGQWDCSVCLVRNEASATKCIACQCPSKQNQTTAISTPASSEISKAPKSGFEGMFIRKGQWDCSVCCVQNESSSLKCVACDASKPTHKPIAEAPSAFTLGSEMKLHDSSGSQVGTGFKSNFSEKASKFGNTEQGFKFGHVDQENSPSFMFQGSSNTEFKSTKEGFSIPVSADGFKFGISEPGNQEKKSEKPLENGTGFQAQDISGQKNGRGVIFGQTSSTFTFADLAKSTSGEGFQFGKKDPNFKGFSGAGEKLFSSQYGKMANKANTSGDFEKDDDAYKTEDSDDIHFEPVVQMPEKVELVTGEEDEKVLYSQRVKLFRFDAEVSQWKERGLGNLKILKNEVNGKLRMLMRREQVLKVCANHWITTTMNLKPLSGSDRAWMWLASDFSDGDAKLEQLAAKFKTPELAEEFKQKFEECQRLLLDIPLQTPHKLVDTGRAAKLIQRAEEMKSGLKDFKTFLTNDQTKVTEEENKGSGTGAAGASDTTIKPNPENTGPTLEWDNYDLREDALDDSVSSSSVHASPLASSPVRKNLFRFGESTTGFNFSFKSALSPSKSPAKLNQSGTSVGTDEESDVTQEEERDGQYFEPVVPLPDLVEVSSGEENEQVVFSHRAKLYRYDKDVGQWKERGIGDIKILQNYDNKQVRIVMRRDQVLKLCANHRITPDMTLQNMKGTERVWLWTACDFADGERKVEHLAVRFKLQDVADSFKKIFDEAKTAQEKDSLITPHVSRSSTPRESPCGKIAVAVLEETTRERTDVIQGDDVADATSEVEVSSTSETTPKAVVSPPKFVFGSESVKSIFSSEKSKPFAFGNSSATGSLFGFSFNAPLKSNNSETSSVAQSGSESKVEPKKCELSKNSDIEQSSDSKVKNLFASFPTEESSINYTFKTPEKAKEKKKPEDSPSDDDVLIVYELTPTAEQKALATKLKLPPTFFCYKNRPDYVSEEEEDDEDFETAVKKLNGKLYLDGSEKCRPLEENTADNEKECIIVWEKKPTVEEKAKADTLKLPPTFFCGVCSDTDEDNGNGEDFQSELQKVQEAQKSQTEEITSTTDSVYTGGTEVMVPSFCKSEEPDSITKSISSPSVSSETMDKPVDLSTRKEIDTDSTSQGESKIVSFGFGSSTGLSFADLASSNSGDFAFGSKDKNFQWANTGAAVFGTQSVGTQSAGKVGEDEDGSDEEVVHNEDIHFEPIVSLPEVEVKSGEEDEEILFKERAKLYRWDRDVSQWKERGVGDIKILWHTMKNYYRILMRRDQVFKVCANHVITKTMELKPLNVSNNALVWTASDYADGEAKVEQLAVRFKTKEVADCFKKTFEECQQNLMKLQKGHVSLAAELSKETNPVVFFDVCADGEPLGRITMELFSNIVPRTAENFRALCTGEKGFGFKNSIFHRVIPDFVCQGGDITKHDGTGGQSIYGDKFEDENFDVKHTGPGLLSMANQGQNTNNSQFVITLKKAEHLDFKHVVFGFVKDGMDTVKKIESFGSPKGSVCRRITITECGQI

GFP-tagged Nup50 = target: T2, GFP-tagged Nup50 (UniProt Q9UKX7)
T2 sequence: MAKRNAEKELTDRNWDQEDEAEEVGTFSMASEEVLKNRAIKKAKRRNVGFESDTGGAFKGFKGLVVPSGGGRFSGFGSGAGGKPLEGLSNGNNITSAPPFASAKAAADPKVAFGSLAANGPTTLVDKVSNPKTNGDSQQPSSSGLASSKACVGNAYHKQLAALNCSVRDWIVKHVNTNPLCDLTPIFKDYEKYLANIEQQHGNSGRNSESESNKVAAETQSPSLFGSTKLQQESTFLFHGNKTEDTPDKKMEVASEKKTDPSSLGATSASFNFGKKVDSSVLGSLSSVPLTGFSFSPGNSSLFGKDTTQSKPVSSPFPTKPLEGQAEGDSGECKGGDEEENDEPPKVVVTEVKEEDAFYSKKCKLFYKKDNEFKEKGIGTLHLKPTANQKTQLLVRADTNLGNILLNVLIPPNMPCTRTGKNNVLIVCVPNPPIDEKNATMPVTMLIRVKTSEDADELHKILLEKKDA

Nup88(1-541)-GFP = target: T3, Nup88(1-541)-GFP (UniProt Q99567)
T3 sequence: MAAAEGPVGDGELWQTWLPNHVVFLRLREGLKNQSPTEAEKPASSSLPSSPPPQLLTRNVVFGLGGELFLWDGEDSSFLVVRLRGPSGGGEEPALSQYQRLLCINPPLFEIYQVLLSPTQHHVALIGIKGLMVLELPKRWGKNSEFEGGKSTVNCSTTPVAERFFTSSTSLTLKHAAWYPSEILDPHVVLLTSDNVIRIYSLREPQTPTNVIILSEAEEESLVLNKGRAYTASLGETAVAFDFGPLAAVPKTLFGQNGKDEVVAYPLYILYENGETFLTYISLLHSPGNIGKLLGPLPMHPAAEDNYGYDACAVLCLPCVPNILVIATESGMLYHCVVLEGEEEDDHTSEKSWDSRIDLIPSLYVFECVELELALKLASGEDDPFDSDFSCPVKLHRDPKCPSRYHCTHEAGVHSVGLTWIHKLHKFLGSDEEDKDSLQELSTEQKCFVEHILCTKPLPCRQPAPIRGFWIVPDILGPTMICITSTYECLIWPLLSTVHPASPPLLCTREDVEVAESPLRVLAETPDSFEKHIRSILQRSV

GFP-tagged Nup88 = target: T4, GFP-tagged Nup88 (UniProt Q99567)
T4 sequence: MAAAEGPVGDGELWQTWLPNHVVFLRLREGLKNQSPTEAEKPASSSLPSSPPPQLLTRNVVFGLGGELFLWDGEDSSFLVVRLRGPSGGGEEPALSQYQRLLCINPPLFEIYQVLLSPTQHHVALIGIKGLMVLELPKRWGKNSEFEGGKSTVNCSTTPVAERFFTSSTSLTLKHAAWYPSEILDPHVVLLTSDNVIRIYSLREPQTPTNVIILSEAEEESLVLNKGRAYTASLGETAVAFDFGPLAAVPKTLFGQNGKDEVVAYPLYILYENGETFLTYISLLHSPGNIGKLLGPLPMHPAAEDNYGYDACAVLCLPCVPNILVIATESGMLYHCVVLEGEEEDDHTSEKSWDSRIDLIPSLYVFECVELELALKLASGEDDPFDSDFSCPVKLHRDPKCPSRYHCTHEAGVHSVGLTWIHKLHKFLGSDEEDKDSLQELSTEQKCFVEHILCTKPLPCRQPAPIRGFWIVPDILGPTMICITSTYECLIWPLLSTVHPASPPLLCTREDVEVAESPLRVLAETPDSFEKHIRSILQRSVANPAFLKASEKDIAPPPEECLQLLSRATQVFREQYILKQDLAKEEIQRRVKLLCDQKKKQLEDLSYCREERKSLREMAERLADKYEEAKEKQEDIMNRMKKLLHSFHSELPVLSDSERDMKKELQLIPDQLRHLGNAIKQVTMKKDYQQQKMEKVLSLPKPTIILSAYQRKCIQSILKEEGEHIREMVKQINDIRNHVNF

GFP-tagged vimentin = GFP-tagged vimentin (UniProt P08670)

binding (Nup88(303-741)-GFP): no binding
binding (GFP-tagged Nup50): no binding
binding (Nup88(1-541)-GFP): binds
Substance: vimentin (endogenous, HeLa) (from UniProt P08670 1-466)

binding (GFP-tagged Nup88): binds
Substance: N-terminal truncated vimentin (Δ1-96-FLAG) (from UniProt P08670 97-466) (domain or fragment)

binding (GFP-tagged vimentin): no binding
Substance: Halo-tagged Nup358 (from UniProt P49792 1-3224)
